These results are taken from PMC4336329 (PLoS ONE, 2015).

The whole screen tested about 310,000 compounds, of which about 14,000 (4.5%) showed an effect of 50% or more. The effect is printed as a negative number. This is one part of the list.
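Further: peak tail current of the secondary pulse compared with the same well before compound.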

The target in the experiment is human ether-à-go-go-related gene (hERG) potassium channel (human, UniProt Q12809). Description: primary screen, population patch clamp on CHO cells stably expressing hERG.
Chain of human ether-à-go-go-related gene (hERG) potassium channel (Q12809 whole entry, looked up): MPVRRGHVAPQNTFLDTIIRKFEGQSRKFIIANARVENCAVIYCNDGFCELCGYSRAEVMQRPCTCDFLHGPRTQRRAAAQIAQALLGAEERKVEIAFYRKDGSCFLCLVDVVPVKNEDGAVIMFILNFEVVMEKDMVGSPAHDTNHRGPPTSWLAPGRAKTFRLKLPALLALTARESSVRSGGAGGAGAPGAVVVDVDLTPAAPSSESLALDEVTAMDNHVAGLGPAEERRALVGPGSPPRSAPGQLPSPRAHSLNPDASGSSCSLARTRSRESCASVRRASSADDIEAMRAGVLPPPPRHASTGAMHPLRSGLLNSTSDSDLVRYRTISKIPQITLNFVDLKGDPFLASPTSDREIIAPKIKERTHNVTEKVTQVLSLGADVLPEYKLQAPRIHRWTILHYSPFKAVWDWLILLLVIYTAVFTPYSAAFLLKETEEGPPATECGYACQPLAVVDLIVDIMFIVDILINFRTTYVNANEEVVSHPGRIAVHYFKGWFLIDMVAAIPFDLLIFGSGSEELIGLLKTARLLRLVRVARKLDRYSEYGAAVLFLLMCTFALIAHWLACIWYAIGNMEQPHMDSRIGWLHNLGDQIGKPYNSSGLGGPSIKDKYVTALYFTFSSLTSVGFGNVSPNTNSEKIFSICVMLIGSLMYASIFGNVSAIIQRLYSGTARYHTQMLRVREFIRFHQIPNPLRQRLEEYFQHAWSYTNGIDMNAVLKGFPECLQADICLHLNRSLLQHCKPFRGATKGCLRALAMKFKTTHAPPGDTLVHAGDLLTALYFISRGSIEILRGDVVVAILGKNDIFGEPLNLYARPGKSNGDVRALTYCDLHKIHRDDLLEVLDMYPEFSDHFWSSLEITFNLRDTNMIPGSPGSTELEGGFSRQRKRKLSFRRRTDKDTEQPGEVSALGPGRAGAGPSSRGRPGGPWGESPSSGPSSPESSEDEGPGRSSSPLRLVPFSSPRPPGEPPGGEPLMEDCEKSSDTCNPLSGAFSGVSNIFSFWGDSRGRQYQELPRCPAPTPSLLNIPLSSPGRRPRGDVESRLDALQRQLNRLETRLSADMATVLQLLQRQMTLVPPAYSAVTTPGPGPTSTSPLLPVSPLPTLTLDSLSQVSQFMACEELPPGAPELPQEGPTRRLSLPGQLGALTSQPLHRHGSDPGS
With `CCOC(=O)c1c(C)[nH]c(C(=O)OCC(=O)Nc2ccc(OC)c(Cl)c2)c1C`, the “hERG current change (%, negative = inhibition) at 10uM” value came out at 17.6%.

On to `COc1ccc(NC(=O)C(=O)NCCC2CCCCN2S(=O)(=O)c2ccc(F)cc2)cc1` (stereo not shown), for which the “hERG current change (%, negative = inhibition) at 10uM” value was -31.4%.

Take `COc1cccc(N=Nc2c(N)[nH]n3c(=O)cc(-c4ccccc4)nc23)c1`: the “hERG current change (%, negative = inhibition) at 10uM” value is -3.64%.

Take `Cc1cccc(N2CCN(C(=O)CCNS(=O)(=O)c3ccc4c(c3)CCC(=O)N4)CC2)c1C`: the “hERG current change (%, negative = inhibition) at 10uM” value was -44.6%.

Consider `O=C(Nc1ccc(NC(=O)C23CC4CC(CC(C4)C2)C3)cc1)c1cc(F)c(F)cc1Cl`, for which the “hERG current change (%, negative = inhibition) at 10uM” value was 8.93%.

As for `Cc1ccc(S(=O)(=O)N2CCN(CC(O)c3ccccc3)CC2)cc1C` (stereo not shown), the “hERG current change (%, negative = inhibition) at 10uM” value came out at 34.4%.

Take `CCn1c(SCC(=O)Nc2ccc(OC)cc2)nc2nc3c(cc2c1=O)COC(C)(C)C3`: the “hERG current change (%, negative = inhibition) at 10uM” value was -72.6%.

Regarding `Oc1ccc(-c2n[nH]c(C(F)(F)F)c2-c2ccccc2)c(O)c1`, the “hERG current change (%, negative = inhibition) at 10uM” value amounted to 14.7%.

For `Cc1ccc(C(=O)O/N=C(\N)c2nonc2N)cc1`, the “hERG current change (%, negative = inhibition) at 10uM” value is recorded as -8.67%.

For `CCC1(C)Cc2c(sc3nnn(CC(=O)Nc4ccc(Cl)cc4)c(=O)c23)CO1` (stereo not shown), the “hERG current change (%, negative = inhibition) at 10uM” value was found to be 13.5%.

As for `COc1ccc2[nH]c(O)c(N=O)c2c1`, the “hERG current change (%, negative = inhibition) at 10uM” value worked out at 3.93%.

Regarding `Cn1c(SC/C=C/c2ccccc2)nnc1-c1ccco1`, the “hERG current change (%, negative = inhibition) at 10uM” value was -27.1%.

For the compound `Cc1nn(Cc2ccccc2)c2sc(C(=O)N3CCN(Cc4ccc5c(c4)OCO5)CC3)cc12.Cl`, the “hERG current change (%, negative = inhibition) at 10uM” value is -5.87%.

As for `CCOc1cc(C=C(C(=O)OC)C(=O)OC)ccc1OCc1ccc([N+](=O)[O-])cc1`, the “hERG current change (%, negative = inhibition) at 10uM” value turned out to be 4.17%.

`CCOc1ccc(NC(=O)CSc2ccccc2N)cc1`: the “hERG current change (%, negative = inhibition) at 10uM” value came to 2.68%.

Turning to `O=C1CC(c2cccc(Br)c2)c2cc3c(cc2N1)CCC3` (stereo not shown), the “hERG current change (%, negative = inhibition) at 10uM” value is on record as -3.47%.

Regarding `Cc1ccc(S(=O)(=O)NCCn2cnc([N+](=O)[O-])n2)cc1`, the “hERG current change (%, negative = inhibition) at 10uM” value is 26.7%.

As for `N#CC1(c2ccccc2)CCCN1C(=O)c1ccc(Br)cc1` (stereo not shown), the “hERG current change (%, negative = inhibition) at 10uM” value is -8.79%.

For the compound `O=S(=O)(Nc1cccc(CO)c1)c1cccs1`, the “hERG current change (%, negative = inhibition) at 10uM” value turned out to be 14.7%.

With `Cc1[nH]c2ccccc2c1/C=N/NC(=O)CNC(=O)COc1ccccc1`, the “hERG current change (%, negative = inhibition) at 10uM” value stood at 16.6%.

`CCc1sc(C(=O)Nc2ncccc2C)cc1C`: the “hERG current change (%, negative = inhibition) at 10uM” value is listed as 22.4%.

In the case of `O=S(=O)(c1ccc(S(=O)(=O)N2CCCC2)cc1)N1CCCCC1`, the “hERG current change (%, negative = inhibition) at 10uM” value is given as 4.73%.

Take `CC([NH2+][O-])C(C)(C)NO.[Cl-]` (stereo not shown): the “hERG current change (%, negative = inhibition) at 10uM” value was 25.3%.

Turning to `Cc1ccc(C2(C)NC(=O)N(CC(=O)Nc3ccccc3C(=O)NC3CCCC3)C2=O)cc1` (stereo not shown), the “hERG current change (%, negative = inhibition) at 10uM” value is -32.8%.

As for `O=C(O)CC[N+](=O)[O-]`, the “hERG current change (%, negative = inhibition) at 10uM” value is given as 15.3%.

For the compound `O=C(COc1ccccc1[N+](=O)[O-])N1CCN(S(=O)(=O)c2ccccc2)CC1`, the “hERG current change (%, negative = inhibition) at 10uM” value is -46.6%.

With `Cc1cccc(-c2nc(CS(=O)CC(=O)N3CC(C)CC(C)C3)c(C)o2)c1` (stereo not shown), the “hERG current change (%, negative = inhibition) at 10uM” value is reported as -25.3%.

As to `Cn1ccnc1SCC(=O)Nc1ccc2nc(SCC(=O)NC3CC3)sc2c1`, the “hERG current change (%, negative = inhibition) at 10uM” value stood at 3.74%.

In the case of `CCC1(c2ccc(F)cc2)NC(=O)N(CC(=O)N2CCN(S(=O)(=O)c3ccc(Cl)cc3)CC2)C1=O` (stereo not shown), the “hERG current change (%, negative = inhibition) at 10uM” value is -6.7%.

Take `COc1ccc(-c2cccc(NS(=O)(=O)c3ccccc3[N+](=O)[O-])c2)nn1`: the “hERG current change (%, negative = inhibition) at 10uM” value was determined as 14.8%.

On to `CC(=O)c1ccc(S(=O)(=O)NC2CCCCCCC2)cc1`, for which the “hERG current change (%, negative = inhibition) at 10uM” value turned out to be 12.7%.

For `CC1Cc2nc(SCC(=O)NCC3CCCO3)n(Cc3ccccc3)c(=O)c2S1` (stereo not shown), the “hERG current change (%, negative = inhibition) at 10uM” value is -21.7%.

In the case of `OC(CN1CCN(c2ccccc2)CC1)c1c[nH]c2ccccc12` (stereo not shown), the “hERG current change (%, negative = inhibition) at 10uM” value was -31.4%.

As to `O=S(=O)(NCC1CCCO1)c1cccc(S(=O)(=O)N2CCCC2)c1` (stereo not shown), the “hERG current change (%, negative = inhibition) at 10uM” value was -14%.

For the compound `O=C(C[n+]1ccc(/C=N/O)cc1)NCc1ccccc1.[Cl-]`, the “hERG current change (%, negative = inhibition) at 10uM” value is -3.42%.

Take `COc1ccc(N2C(=O)c3ccccc3NC2c2cccnc2)cc1` (stereo not shown): the “hERG current change (%, negative = inhibition) at 10uM” value is 16.3%.

With `O=[N+]([O-])c1ccc(Oc2cccc3cccnc23)c(Cl)c1`, the “hERG current change (%, negative = inhibition) at 10uM” value is -15.4%.

As to `N#CCCN1CCCc2cc(N=Nc3ccc(C(F)(F)F)cc3)ccc21`, the “hERG current change (%, negative = inhibition) at 10uM” value was determined as 13.4%.

Regarding `CCN(CC)Cc1c(O)ccc2c(=O)c(-c3ccccc3)coc12.Cl`, the “hERG current change (%, negative = inhibition) at 10uM” value is on record as -1.91%.

Consider `CCCCCC(=O)Nc1ncc2c(n1)CC(c1cccs1)CC2=O` (stereo not shown), for which the “hERG current change (%, negative = inhibition) at 10uM” value is recorded as -30%.

Take `Cn1ccnc1C1CCCCN1Cc1nc(Cc2ccccc2F)no1` (stereo not shown): the “hERG current change (%, negative = inhibition) at 10uM” value is on record as -1.47%.

For the compound `COC(=O)c1ccccc1OCc1cccc(C)n1`, the “hERG current change (%, negative = inhibition) at 10uM” value amounted to 12.6%.

As to `FC(F)(F)c1nnc2c(Sc3ccccn3)nc3ccccc3n12`, the “hERG current change (%, negative = inhibition) at 10uM” value is on record as 15.5%.
